Assay results taken from PubChem BioAssay AID624296 (National Center for Advancing Translational Sciences (NCATS), 2012).
Among all 350,000 compounds or so, about 9,900 (2.8%) were called active. The shares of active, inactive and inconclusive entries below differ from those in the screen. Calls come from the whole dose curve; as a rule, active = well fitted activation curve with a large enough effect; inconclusive = small, poorly fitted or top-dose-only effect; inactive = no such curve, though single readings can be large or run the other way. No potency is given beside an inconclusive call; the fits are too rough.

Assay: A quantitative high throughput screen for small molecules that induce DNA re-replication in MCF 10a normal breast cells. For activity, positive = re-replication: % of control where 0% means no effect. Note: nearly all actives have a fitted effect of over 50% in size.
Conditions: MCF 10A DNA re-replication, Hoechst nuclear intensity, 48 h; activity, positive = re-replication: at 46.1 µM (top of the series)
Potency is the fitted concentration of half-maximal effect; tags give direction and shape of the fitted curve.

Row | Structure (SMILES) | Potency | activity, positive = re-replication
1 | O=C(c1cc2ccccc2oc1=O)N1CCN(Cc2ccc3c(c2)OCO3)CC1 | inactive | 
2 | CCSc1nc2c(c(=O)[nH]c(=O)n2C)n1Cc1ccc(Cl)cc1 | inactive | 
3 | O=C(CCc1ccccc1)NNC(=O)COc1ccccc1Cl | inconclusive [activator, single point] | 
4 | CCCCN1CCC(CN2C(=S)NC[C@@H]2CC(C)C)CC1 | inconclusive [activator, partial curve, poor fit] | 
5 | CCC(C)NC(=O)[C@H]1N2C(=O)c3ccccc3C2SC1(C)C (stereo not given in full) | inconclusive [activator, single point] | 
6 | Cc1ccc(Cn2nnc3c(=O)n(CC(=O)N4CCCc5ccccc54)cnc32)cc1 | inconclusive [activator, single point] | 
7 | CCOC(=O)C1=C(C)NC2=C(C(=O)c3ccccc32)C1c1ccc(O)cc1 (stereo not given) | inconclusive [activator, partial curve, poor fit] | 
8 | COc1ccc(NC(=O)CSc2nc3ccccc3c(=O)n2CCCN2CCOCC2)c(OC)c1 | inconclusive [activator, single point] | 
9 | COC(=O)C1=C(C)NC(=S)NC1c1ccc(-c2ccccc2C(=O)OC)o1 (stereo not given) | inconclusive [activator, partial curve, poor fit] | 
10 | CC(C)c1cccc(C(C)C)c1NC(=O)CN1CCCC1 | inactive | 
11 | CCN(C[C@H]1N[C@@](Cc2ccccc2)(C(=O)OC)[C@H]2C(=O)N(C)C(=O)[C@@H]12)C(=O)c1ccc(F)cc1 | active: 0.82 µM | 
12 | CCN(CC)S(=O)(=O)c1ccc(Cl)c(NC(=O)COC(=O)c2c(C)noc2C)c1 | inactive | 
13 | O=C(Nc1ccc(F)cc1)NC1CCCCC1 | inactive | 
14 | Cc1ccc(SCC(=O)OCC(=O)NCCCc2ccccc2)cc1 | inconclusive [activator, single point] | 
15 | CCCN1CCN(CC(=O)Nc2nnc(CC)s2)CC1 | inconclusive [activator, single point] | 
16 | CN1C[C@@H]2[C@@H]3C(=O)N(C)C(=O)[C@@H]3[C@](Cc3ccccc3)(C1=O)N2C(=O)c1ccc(F)cc1 | inactive | 
17 | O=C(COC(=O)c1ccccc1Nc1ccccc1F)c1ccccc1 | inconclusive [activator, full curve] | 
18 | CCc1ccc(N2CC(C(=O)OCC(=O)Nc3ccc(C#N)cc3)CC2=O)cc1 (stereo not given) | inactive | 
19 | OCCC1CN(Cc2ccc(F)cc2)CCN1CCc1ccccc1 (stereo not given) | inconclusive [activator, partial curve, poor fit] | 
20 | c1ccc(CNc2ncnc3sc4c(c23)CCCC4)nc1 | inactive | 
21 | Cc1ccc(CSCC(=O)N/N=C/c2sccc2C)cc1 | inconclusive [activator, partial curve, poor fit] | 
22 | Clc1ccc(OCCCCN2CCc3ccccc3C2)cc1 | inconclusive [activator, single point] | 
23 | Brc1ccc(NC2=Nc3ccccc3CC2)cc1 | inconclusive [activator, single point] | 

Row | Structure (SMILES) | Potency | activity, positive = re-replication
24 | O=C(CSc1nnc(C2CC2)n1-c1ccccc1)Nc1ccc(N2CCOCC2)cc1 | inconclusive [activator, partial curve, poor fit] | 
25 | Cc1cc(C(=O)NN=C2CCCCC2)c2ccccc2n1 | inconclusive [activator, single point] | 
26 | COc1ccc(-c2cc(Cl)cc3c(=O)c4ccccc4n(C)c23)cc1F |  | inconclusive: 512% [activator]
27 | COc1ccc(CN(C(=O)c2cccs2)c2nccs2)cc1OC | inconclusive [activator, partial curve, poor fit] | 
28 | COc1cccc(/C=C(/C#N)c2ccc(Cl)cc2)c1OCc1cccc(C(=O)O)c1 | inconclusive [activator, partial curve, poor fit] | 
29 | Cc1nc2ccc(NC(=O)c3cccnc3)cc2s1 | inactive | 
30 | C=C1C[C@@]23CCC4[C@@](C)(CCC[C@@]4(C)C(=O)OC)C2CC[C@]1(OC(C)=O)C3 (stereo not given in full) | inconclusive [activator, single point] | 
31 | CNC(=S)N(CCc1c(C)[nH]c2ccc(Cl)cc12)Cc1cc(OC)c(OC)c(OC)c1 | inconclusive [activator, partial curve, poor fit] | 
32 | CCOc1ccc(CN(CCC#N)C(=S)NC(=O)c2ccccc2)cc1 | inconclusive [activator, single point] | 
33 | C=CC(=O)OCCOCCOCCOCCOC(=O)C=C | active: 5.8 µM | 
34 | O=C(c1ccc(F)cc1)C(CN1CCOCC1)c1ccccc1 (stereo not given) | active: 5.17 µM | 
35 | CCN(CC)S(=O)(=O)c1cccc(C(=O)Nc2ccc(S(=O)(=O)NC3=NCCCCC3)cc2)c1 | inactive | 
36 | CCOc1ccccc1NC(=O)CN(c1cc(C)cc(C)c1)S(=O)(=O)c1c(C)noc1C | inactive | 
37 | Cc1c(-c2cccc(Cl)c2)nc2ccccc2c1C(=O)OC/C(O)=C(\C#N)c1nc2ccccc2[nH]1 | active: 5.17 µM | 
38 | C=CC[n+]1c(-c2ccc(C)cc2)csc1NNC(=O)Nc1ccccc1 | inconclusive [activator, partial curve, poor fit] | 
39 | CN(C)S(=O)(=O)n1cc(/C=C(\NC(=O)c2ccccc2)C(=O)NCCCN2CCOCC2)c2ccccc21 | inconclusive [activator, partial curve, poor fit] | 
40 | CCOC(=O)C1=C(C)NC(c2cccs2)C(=O)N1 (stereo not given) | inactive | 
41 | Cc1cccc(N(CC(=O)N2CCc3ccccc3C2)S(C)(=O)=O)c1C | inactive | 
42 | COc1ccc(OC)c(S(=O)(=O)Nc2cc3c(cc2N2CCCC2)n(C)c(=O)c(=O)n3C)c1 | inactive | 
43 | COc1ccc(N/N=C(/C(N)=O)C2=NC(C)(C)Cc3ccccc32)cc1 | inconclusive [activator, single point] | 
44 | Cn1nnnc1SCC(=O)NC1CCCC1 | inactive | 
45 | CC1CCCN(c2ccc(C(=O)NCc3ccco3)cc2[N+](=O)[O-])C1 (stereo not given) | inconclusive [activator, partial curve] | 
